Source: article PMC7819943, “Rice protein-binding microarrays: a tool to detect cis-acting elements near promoter regions in rice”
This is one part of the list.

Each sequence was assayed against T1, OsWOX13 (Oryza sativa, UniProt Q5QMM3 1-267) (assay: protein-binding microarray (RPBM); PBS, 2% BSA, 51.3 ng/ul salmon testes DNA, 50 uM zinc acetate, 200 nM TF, 25 C, 1 h; high values mean tight binding). Details: protein: recombinant; tags: N-terminal polyhistidine and DsRed monomer fusion (pET32a); label: CyDye5-dUTP incorporated in the synthesized complementary strand; 3' TTTTT single-stranded linker to array surface; dsDNA, one strand shown.
T1 sequence: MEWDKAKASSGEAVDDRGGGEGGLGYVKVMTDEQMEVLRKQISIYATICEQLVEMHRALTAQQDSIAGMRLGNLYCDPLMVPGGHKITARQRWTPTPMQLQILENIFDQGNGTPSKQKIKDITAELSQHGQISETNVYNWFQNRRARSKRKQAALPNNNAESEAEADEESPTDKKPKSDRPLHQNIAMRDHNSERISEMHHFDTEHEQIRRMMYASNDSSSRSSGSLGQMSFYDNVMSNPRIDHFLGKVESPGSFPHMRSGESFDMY
Summary of the method: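 Transcription factors, each fused N-terminally to a polyhistidine tag and DsRed, were expressed in E. coli BL21-CodonPlus and purified on Ni–NTA. A custom Agilent array was made double-stranded by primer extension with Cy5-dUTP and blocked with 2% BSA. It was incubated with 200 nM protein in PBS, 2% BSA, salmon testes DNA and 50 µM zinc acetate at 25 °C for 1 h, then washed. The binding signal is per-feature fluorescence intensity (arbitrary units) read on an Axon 4000B scanner.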

Sequence | binding signal
ATAATTGTTAGCTCTGATGTTGCCTTCATCGGAGGTCATACGGAGTCACCTAGTGCAG | 8640 fluorescence intensity (a.u.)
AGTTATGTAATTGGATCATGAGTAGATATACATGTGTGCTCGGAGTCACCTAGTGCAG | 29300 fluorescence intensity (a.u.)
TTCCTTGTCTCCTACTGCTTACTCCCTCCGTCTCAAAATACGGAGTCACCTAGTGCAG | 3460 fluorescence intensity (a.u.)
ATAGATTGTGAAGATTTTCAGAGAAAGTTATTGCTAAACACGGAGTCACCTAGTGCAG | 9210 fluorescence intensity (a.u.)
TATGAATATAATTGTCTAGTTTGTTATTTGAGATAGTGGACGGAGTCACCTAGTGCAG | 6230 fluorescence intensity (a.u.)
GACTCAATAATCTAGATTATAATAATCCCAAGCTAAAAGACGGAGTCACCTAGTGCAG | 8090 fluorescence intensity (a.u.)
ATTCAGATTCGCACATTGATTATCATTCCCCTTGGGTTCGCGGAGTCACCTAGTGCAG | 12900 fluorescence intensity (a.u.)
TTTAAATTTGTTCGACTGCTTCCACAAAATTTCACTCACACGGAGTCACCTAGTGCAG | 7320 fluorescence intensity (a.u.)
AACTGCTAATTACGCTATTTACTGTATGCCAAATATCTAACGGAGTCACCTAGTGCAG | 11400 fluorescence intensity (a.u.)
ATTAATTATGATCTGGTGTTTGTAATGCCCGTCTACTTGTCGGAGTCACCTAGTGCAG | 28000 fluorescence intensity (a.u.)
ATTAGATTGGTTATAGATAAATTGGAGTTAGTGGTGGGCTCGGAGTCACCTAGTGCAG | 49900 fluorescence intensity (a.u.)
TCAGGACAAATCAGCTGCTGATCAATTAATTTGGACGACTCGGAGTCACCTAGTGCAG | 8380 fluorescence intensity (a.u.)
CATAGTATAAAATTGATTAGAATGAATTTTGAGACAATTACGGAGTCACCTAGTGCAG | 9260 fluorescence intensity (a.u.)
GATATACTAATTATCCACCTTATAGAAAGATGATATGCCTCGGAGTCACCTAGTGCAG | 5820 fluorescence intensity (a.u.)
ATGGAGCAATTAGGTTTAAAAGATTTGTCTCGCAAATTAGCGGAGTCACCTAGTGCAG | 4620 fluorescence intensity (a.u.)
TATATGATTATTTTCGCGGTATGGAAAATTTAGTTGTCTTCGGAGTCACCTAGTGCAG | 22100 fluorescence intensity (a.u.)
ACGGAAAAGACTAATTAATCAGATGTCATACATGCAAGAACGGAGTCACCTAGTGCAG | 6420 fluorescence intensity (a.u.)
TGTGTAACATCATGATTTGTTTGGTTTTCAACAATTTATACGGAGTCACCTAGTGCAG | 3680 fluorescence intensity (a.u.)
GTCAATTTGACCTGAAGATTGGATGTGTCTTGATAGCTTGCGGAGTCACCTAGTGCAG | 7520 fluorescence intensity (a.u.)
TCAATCTCTAAATCAAATTTAAACTATTTTAATTTCTCCTCGGAGTCACCTAGTGCAG | 4590 fluorescence intensity (a.u.)
TCTACCAATCAAATCAAATGTATTCTCATACTACTATCCTCGGAGTCACCTAGTGCAG | 22700 fluorescence intensity (a.u.)

Sequence | binding signal
ACCTAACCAATTAAGATGCGTTCACTTCGCAACCCTTTAACGGAGTCACCTAGTGCAG | 5550 fluorescence intensity (a.u.)
AGTCTAATAACAAAACAAATTACATATTCCGCCTGTAAACCGGAGTCACCTAGTGCAG | 5290 fluorescence intensity (a.u.)
CTTTACCATCGATTGATTGACGACACCTGTTGCATGCATGCGGAGTCACCTAGTGCAG | 51600 fluorescence intensity (a.u.)
GTGGAGGGGCGGCGTTGGGCAGAGGGGCGGCACGGGTGAACGGAGTCACCTAGTGCAG | 4260 fluorescence intensity (a.u.)
ATTCTTGCTACCTATAATTGCAACATGACAGAGTGTTAAGCGGAGTCACCTAGTGCAG | 5950 fluorescence intensity (a.u.)
GCTTAAATGAATAATCTATGGTCCAAATTATCTCTCTCATCGGAGTCACCTAGTGCAG | 16200 fluorescence intensity (a.u.)
AAGCCTAATTAATCCGTCATTAACAAATATTTACTGTAGCCGGAGTCACCTAGTGCAG | 24100 fluorescence intensity (a.u.)
CTCTATGTGATGGATTATTCTTTGTTGGCAAATTGTCATTCGGAGTCACCTAGTGCAG | 6430 fluorescence intensity (a.u.)
AACAATTGACAGATCTGGTTTCAGGTTTAACCGTCTGCGGCGGAGTCACCTAGTGCAG | 49800 fluorescence intensity (a.u.)
GAGATATCTGTTGATTAAAGTCCCCATGGATTAGCTGTGTCGGAGTCACCTAGTGCAG | 3390 fluorescence intensity (a.u.)
AGCTAATAAATAGTTAATTTACAAGCGCTAAACAAGATAGCGGAGTCACCTAGTGCAG | 21600 fluorescence intensity (a.u.)
CCCTTGATGGGCTTCTCTACCTGCGCAGTGTGATCGATTACGGAGTCACCTAGTGCAG | 9420 fluorescence intensity (a.u.)
GATAATCACCTTTGGATCAAGCAAATCACGAAAGGACAACCGGAGTCACCTAGTGCAG | 3180 fluorescence intensity (a.u.)
GGATTATGTTACAGGTTTCAATCAATCCTGAGTCAAAATCCGGAGTCACCTAGTGCAG | 6360 fluorescence intensity (a.u.)
AATAATTTGGTTAGTTATTGTTAAGGAGAAATTTGATTCCCGGAGTCACCTAGTGCAG | 12500 fluorescence intensity (a.u.)
TCGAGATTGGATCAAGCGGCATTAGCAGTTTGAAAGGCCACGGAGTCACCTAGTGCAG | 22800 fluorescence intensity (a.u.)
CTCAGATTTGATCAGTGGTAATTTCTCATGTAATCTCATTCGGAGTCACCTAGTGCAG | 10500 fluorescence intensity (a.u.)
ATTTATGTAATTATCATTTATTTTATTGTAAATTTATTTACGGAGTCACCTAGTGCAG | 16300 fluorescence intensity (a.u.)
AGGGGAGGGGCAGGGAGTTTAATTGGGACTTGGAAGGAGGCGGAGTCACCTAGTGCAG | 4790 fluorescence intensity (a.u.)
TTGCTAATTGCCGCACGATGGCAAACCAAGAAACAGATTGCGGAGTCACCTAGTGCAG | 20700 fluorescence intensity (a.u.)
GAAATAACTAGATTATATTACTCTTTCATGCAATAAACATCGGAGTCACCTAGTGCAG | 5080 fluorescence intensity (a.u.)

Sequence | binding signal
TAATGTGTGTGTATAATTAATTAAGCAGTGAAGTGAATCGCGGAGTCACCTAGTGCAG | 5650 fluorescence intensity (a.u.)
ACTCCATTAATTGGTCTAGGTTTTCTATCACCACCACATGCGGAGTCACCTAGTGCAG | 28300 fluorescence intensity (a.u.)
GCAGCAGAGACAAGAGGACTGATTGATGAGGCCGCAAAGCCGGAGTCACCTAGTGCAG | 12200 fluorescence intensity (a.u.)
AATTTAATTAGTTGATTAAGTTGCACAAATTAATCTAATACGGAGTCACCTAGTGCAG | 6010 fluorescence intensity (a.u.)
TCAAATAAACTTTTAAATTTTACTAATCTAGTCAAAAGCCCGGAGTCACCTAGTGCAG | 5900 fluorescence intensity (a.u.)
TTAAGATTTATTTCAAATAGATCATTTAAAATAGACCCCTCGGAGTCACCTAGTGCAG | 7260 fluorescence intensity (a.u.)
CGTGGCAATTAACTATTTGCCATTAGACTCATATATTATACGGAGTCACCTAGTGCAG | 4280 fluorescence intensity (a.u.)
CCTAATCATCCCTATCAACACACCTAAGCTCACCAAATTCCGGAGTCACCTAGTGCAG | 3450 fluorescence intensity (a.u.)
TTCTGAATGTGATCACCTGACAAATTTGTTCAGAGTTATCCGGAGTCACCTAGTGCAG | 5250 fluorescence intensity (a.u.)
CTCACATGTTAATTACCATCAATGTATTTTACTCTTTTAACGGAGTCACCTAGTGCAG | 16700 fluorescence intensity (a.u.)
CGCGCGATTGAAGAAGAAATTCCAGTCCACAGTCAAGGCACGGAGTCACCTAGTGCAG | 4590 fluorescence intensity (a.u.)
TAAATTGGTATAGATGTATTGGAGTTAGTACTAGGCTATACGGAGTCACCTAGTGCAG | 6680 fluorescence intensity (a.u.)
AACTTGAAACAATTTGATTTTGACTAAAGTCAAAACGTCTCGGAGTCACCTAGTGCAG | 4710 fluorescence intensity (a.u.)
TAAATTATTTTCTATTTATAAATATGTCGTTTGCCTTATTCGGAGTCACCTAGTGCAG | 4180 fluorescence intensity (a.u.)
ACTAAACTGCCTTTCTTTAGATCTGGCTTCACAATGATGCCGGAGTCACCTAGTGCAG | 3220 fluorescence intensity (a.u.)
CTTTGCCTTGATTGGATCAGCTAGTCCTTCGTTTGAGTCCCGGAGTCACCTAGTGCAG | 29800 fluorescence intensity (a.u.)
GCTTAATTAGCCGCTTCAGTTGCACAGTAACTGAGGAACCCGGAGTCACCTAGTGCAG | 32700 fluorescence intensity (a.u.)
CCGATGTGATAGGGACTTAAAAGTTTAAAAGTTTTAGTCCCGGAGTCACCTAGTGCAG | 7060 fluorescence intensity (a.u.)
ATAAATTATCCCACCAAAATTCAACTGAATTCGATAAGTTCGGAGTCACCTAGTGCAG | 7710 fluorescence intensity (a.u.)
GAAGATTGGGAAAATTGACAAGTTTCAAAGTTCAAACTGGCGGAGTCACCTAGTGCAG | 47400 fluorescence intensity (a.u.)
TTTTAATCATCAATGTAACTTAACCTTCAGACTTCAATCCCGGAGTCACCTAGTGCAG | 11000 fluorescence intensity (a.u.)

Sequence | binding signal
AAAAGTAATTTATAAATAAAATTTCTATATACGTGTTCTTCGGAGTCACCTAGTGCAG | 10600 fluorescence intensity (a.u.)
ACACTAAATTATTCTACCCACAAATTAAATAATTGAAATACGGAGTCACCTAGTGCAG | 9290 fluorescence intensity (a.u.)
ATAAAATTTACAAACGGTAACAAGAACCTATGTTACATGACGGAGTCACCTAGTGCAG | 9080 fluorescence intensity (a.u.)
ATTGCTGATTGTCTGTTCTTTTACTTGACATAACCTGAATCGGAGTCACCTAGTGCAG | 30100 fluorescence intensity (a.u.)
TCATGTGCCAATCACCAGTGTCACACGAAGAGAGACGGCACGGAGTCACCTAGTGCAG | 12000 fluorescence intensity (a.u.)
AAGCCAATTATAAACATATTTTGAGAAGATAGATAGGGAGCGGAGTCACCTAGTGCAG | 6240 fluorescence intensity (a.u.)
TCTGTGGTGATTTGTGCTGCGAGAGAAACTTCTTTGTCGACGGAGTCACCTAGTGCAG | 5500 fluorescence intensity (a.u.)
ACTTAGATAGTTTAATCACATCATTAGACCCTGGGGTGAGCGGAGTCACCTAGTGCAG | 5080 fluorescence intensity (a.u.)
AGTGTGATTATGCAATTCTAATTGCTGAACTTTTGGTGCTCGGAGTCACCTAGTGCAG | 40500 fluorescence intensity (a.u.)
AATATGGATTGATTATGGTTGTGTTTTAGATGCCTTTCCTCGGAGTCACCTAGTGCAG | 17400 fluorescence intensity (a.u.)
GTTAAGTTAGTGCATAATTTAAAATTATATTGCTATTTTACGGAGTCACCTAGTGCAG | 6850 fluorescence intensity (a.u.)
CATTCTCTCATCAATCATCCTATAGTTGCTCCCCTATTTCCGGAGTCACCTAGTGCAG | 8360 fluorescence intensity (a.u.)
GGTTTGATGGAGGATGCTCTGACCGTCTTTCGCTCTTGTCCGGAGTCACCTAGTGCAG | 5140 fluorescence intensity (a.u.)
AGGGTGATCCGAGTATAATTGGAACGGTAGTCAATCGTTTCGGAGTCACCTAGTGCAG | 4650 fluorescence intensity (a.u.)
TTTTGAAATTATTAATTATTTTATTTGTGACTTACTTTATCGGAGTCACCTAGTGCAG | 14800 fluorescence intensity (a.u.)
GGATAATTTTGCTTTCCTTGAGGTTCATTCCAATTATTTTCGGAGTCACCTAGTGCAG | 7740 fluorescence intensity (a.u.)
CATAATTACCGTGGCAATAGACAGCGATCGTGGCTGTTCGCGGAGTCACCTAGTGCAG | 35900 fluorescence intensity (a.u.)
CGCGGGCGTGATTAGGGTTTGCGGCTGGGGTTGCGGTGCACGGAGTCACCTAGTGCAG | 21300 fluorescence intensity (a.u.)
TAATTGAGTCAATCAATATGCTTCTGAATCTGCTGATCGCCGGAGTCACCTAGTGCAG | 24800 fluorescence intensity (a.u.)
AATAAATTAATTTTGAAATTTAAAATCAATAATGGTTTACCGGAGTCACCTAGTGCAG | 31400 fluorescence intensity (a.u.)
TCAAAATCAGTTTGAGTAAATTTTATTTTGGTTCAACTTTCGGAGTCACCTAGTGCAG | 6800 fluorescence intensity (a.u.)
